Data from PubChem BioAssay AID1159614 (National Center for Advancing Translational Sciences (NCATS), 2016).
Hit rate of the full screen: of about 45,000 compounds, about 65 (0.1%) were called active. Calls follow the shape of the dose curve; as a rule, active = well fitted activation curve with a large enough effect; inconclusive = small, poorly fitted or top-dose-only effect; inactive = no such curve, though single readings can be large or run the other way. This is one part of the list.

What follows are molecules tested against Galactocerebrosidase (Homo sapiens) (UniProt P54803) (assay: A Novel Cell-Based Assay to Identify Small Molecules for B -Galactocerebrosidase). Conditions: 145M-Twi-hGALC-G270D cells (Twitcher mouse brain line with human GALC G270D), HMU-beta-Gal fluorescence, 48 h; series mostly up to 57.5 µM; activation: at the top concentration.
Sequence of UniProt P54803 (P54803 whole entry, looked up): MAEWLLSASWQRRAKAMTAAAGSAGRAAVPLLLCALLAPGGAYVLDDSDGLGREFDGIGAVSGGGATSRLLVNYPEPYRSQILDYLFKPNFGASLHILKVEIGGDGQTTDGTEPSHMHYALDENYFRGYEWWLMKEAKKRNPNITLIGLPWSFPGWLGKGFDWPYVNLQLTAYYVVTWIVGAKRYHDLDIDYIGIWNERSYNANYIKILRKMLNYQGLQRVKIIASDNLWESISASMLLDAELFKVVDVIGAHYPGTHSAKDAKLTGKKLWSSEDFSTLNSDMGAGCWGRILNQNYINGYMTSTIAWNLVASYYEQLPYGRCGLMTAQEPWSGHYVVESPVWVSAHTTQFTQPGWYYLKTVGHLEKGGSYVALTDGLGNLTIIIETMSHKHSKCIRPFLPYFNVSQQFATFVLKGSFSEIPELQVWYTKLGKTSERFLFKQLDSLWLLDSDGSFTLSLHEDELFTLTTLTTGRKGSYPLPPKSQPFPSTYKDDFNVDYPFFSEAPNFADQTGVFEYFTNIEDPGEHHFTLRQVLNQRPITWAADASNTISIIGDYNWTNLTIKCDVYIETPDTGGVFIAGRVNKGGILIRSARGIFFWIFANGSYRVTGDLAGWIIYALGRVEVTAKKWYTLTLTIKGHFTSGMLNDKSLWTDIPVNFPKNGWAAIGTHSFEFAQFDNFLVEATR
Method in brief: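 Fluorogenic HMU-b-Gal hydrolysis (0.1 mM final, pH 5.2 citrate-phosphate with 1 mg/mL sodium taurocholate; carbonate stop buffer) measures mutant GALC activity after compound treatment of live 145M-Twi Twitcher brain cells stably carrying human GALC-G270D, with wild-type GALC line alongside; activation sought.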
Also: 0% is about no effect; nearly all actives have a fitted effect of over 65% in size.

| SMILES | activation |
| --- | --- |
| CCC(=O)N1c2nc(C(C)C)nn2C2(CCCCC2)[C@@H]2CCCC[C@@H]21 | inactive: -1.1% |
| Cc1ccc(C(=O)Nc2nnc(SCc3cc(=O)n4ccc(C)cc4n3)s2)cc1 | inactive: 2.88% |
| O=C(Cn1nc2c(cc1=O)CCCC2)NCc1ccccc1Cl | inactive: -23.4% |
| COc1ccc(NCc2cccn2-c2nnc(N3CCOCC3)s2)c(OC)c1 | inactive: -13.6% |
| O=C(Cn1c(SCc2cccc(F)c2)nc2ccncc21)Nc1ccc(Cl)cc1F | inactive: -11.8% |
| CCOc1cc(CNC(=O)C(NS(=O)(=O)c2cccs2)C(C)C)cc(OCC)c1OCC (stereo unspecified) | inactive: -28.1% |
| O=C(NNc1ncnc2c1cnn2-c1ccccc1)c1ccccc1 | inactive: -20.9% |
| CCOC(=O)c1cccc(NC(=O)C2CCN(c3nnc(C)c4c(C)n(-c5ccccc5)nc34)CC2)c1 | inactive: -1.77% |
| COCCNC(=O)Cn1c(=O)n(-c2ccc(C)c(C)c2)c(=O)c2c3c(sc21)CCCCC3 | inactive: 3.21% |
| COc1ccc(Cl)cc1NC(=O)C(C)N1Cc2ccccc2C1=O (stereo unspecified) | inactive: -11% |
| COc1ccc(NC(=O)CN2CCN(S(=O)(=O)c3ccc(Br)cc3)CC2)cc1 | inactive: -6.43% |
| CCOc1ccccc1CNC(=O)c1cccc(NC(=O)c2nsc3ccccc23)c1 | inactive: -5.12% |
| CCOC(=O)c1c(NC(C)=O)c2c3c(sc2n1Cc1cccc(Cl)c1)CCCC3 | inactive: -11.5% |
| Cc1ccc(C(CC(=O)Nc2ccc(C)cc2C)N2Cc3ccccc3C2=O)cc1 (stereo unspecified) | inactive: -31.3% |
| Cc1cn2c(=O)cc(COc3cccc(NC(=O)c4cccc(F)c4)c3)nc2s1 | inactive: -6.39% |
| COc1ccc(C(=O)Nc2ccc3nc(N4CCCCC4)cc(C)c3c2)c(OC)c1 | inactive: -6.99% |
| COc1ccc(N2CCN(S(=O)(=O)CCNC(=O)Cc3ccc(-c4ccccc4)cc3)CC2)cc1 | inactive: -13.5% |
| CCCc1oc2ccc(NS(=O)(=O)c3ccc(OC)cc3)cc2c1C(=O)OCC | inactive: -10.6% |
| CCC(Oc1ccc(F)cc1)C(=O)Nc1cc(-c2ccc(C)cc2)no1 (stereo unspecified) | inactive: -18.2% |
| COc1cccc(CNC(=O)Nc2cc(C(=O)NCc3cccc(F)c3)ccc2N2CCCC2)c1 | inactive: -17% |
| CCNC(=O)CCSc1nnc(-c2ccc(O)cc2)o1 | inactive: -14.1% |
| Cn1c(=O)c2ccccc2n2c(CCC(=O)N3CCN(c4cccc(Cl)c4)CC3)nnc12 | inactive: -15.6% |
| CCOc1ccc(NC(=O)CC2C(=O)N(c3cccc(OC)c3)C(=O)N2C2CCCCC2)cc1 (stereo unspecified) | inactive: -11.3% |
| CCOc1cc(CNC(=O)c2ccc(NC(=O)c3nsc4ccccc34)cc2)ccc1OC | inactive: -25.2% |

| SMILES | activation |
| --- | --- |
| CCN(CC)c1ccc(NC(=O)c2cc(CN3CCCC3)on2)c(C)c1 | inactive: -19.4% |
| COc1ccc(Cn2c(SCC(=O)NCc3ccccc3)nc3ccccc32)cc1 | inactive: -42.6% |
| CCCCn1c(Oc2cccc(C(=O)OC)c2)nc2c1c(=O)n(C)c(=O)n2C | inactive: 17.8% |
| Cc1ccc(C(=O)NCC(=O)OCc2cc(=O)n3nc(C4CCCCC4)sc3n2)cc1 | inactive: -3.14% |
| CCOc1ccc(NC(=O)Cn2nnc(C(=O)OC)c2C(=O)OC)cc1 | inactive: -19% |
| COc1ccccc1C(=O)Nc1cc(-c2cccc(Br)c2)nn1-c1ccccc1 | inactive: -16.9% |
| Cc1cc(C)cc(N2C(=O)CC(c3ccc(C(F)(F)F)cc3)C3=C2COC3=O)c1 (stereo unspecified) | inactive: -8.79% |
| COc1ccc(Cl)cc1NC(=O)C(C)n1nnc2sc3c(c2c1=O)CCCC3 (stereo unspecified) | inactive: -0.387% |
| Cc1cccc(NC(=O)CSc2nc(-c3cccs3)cc(C(F)(F)F)c2C#N)c1 | inactive: 3.11% |
| CCN1CCN(c2csc3ccc(Cl)cc3c2=O)CC1 | inactive: -14.7% |
| CCc1cccc(NC(=O)Cn2nc(CC)n3c(cc4cc(C)ccc43)c2=O)c1 | inactive: -18.7% |
| O=c1oc2ccc3ccccc3c2cc1-c1nnc(Nc2ccccc2)s1 | inactive: 1.51% |
| COc1ccc(C(=O)NC2(C(F)(F)F)C(=O)NC(C)=C2C#N)cc1 (stereo unspecified) | inactive: -5.89% |
| Cc1ccc2c(c1)C(c1ccc(F)cc1)N(C(=O)C(C)C)CC(=O)N2 (stereo unspecified) | inactive: 7.83% |
| CCC(=O)Nc1cc(C(=O)NCc2ccc(C)cc2)ccc1S(=O)(=O)c1ccc(C)cc1 | inactive: -22.9% |
| COc1ccc(N2CCN(S(=O)(=O)c3ccc(-c4cc(C(F)(F)F)on4)s3)CC2)cc1 | inactive: -7.42% |
| COc1cccc(NC(=O)CSc2nc(O)c(C/C=C/c3ccccc3)c(=O)[nH]2)c1 | inactive: -15.1% |
| COc1cc(NC(=O)c2nc3cc(C)c(C)cc3n(C)c2=O)cc(OC)c1OC | inactive: -12.6% |
| Cc1ccc(CCNC(=O)c2sc3ncccc3c2-n2cccc2)cc1 | inactive: -10.2% |
| CC1CCC(NC(=O)C2(C)Cc3ccccc3C(=O)N2Cc2ccccc2Cl)CC1 (stereo unspecified) | inactive: -5.93% |
| Cc1cc(C)c2oc(C(=O)Nc3c(C(=O)c4ccc(F)cc4)oc4ccccc34)cc(=O)c2c1 | inactive: -15.1% |
| Cc1cccc(OCc2ccc(-c3nc(C#N)c(N4CCN(c5ccccc5)CC4)o3)o2)c1 | inactive: -12.7% |
| Cc1ccc(C)c(CN2C(=O)c3ccccc3Sc3ccc(C(=O)NCc4ccco4)cc32)c1 | inactive: 3.21% |
| CCc1cccc(C)c1Nc1c(-c2ccc(N(C)C)cc2)nc2ncccn12 | inactive: -38.3% |

| SMILES | activation |
| --- | --- |
| COC(=O)c1c(-c2cccs2)csc1NC(=O)c1cc(OC)cc(OC)c1 | inactive: -12% |
| CCN(CC)c1ccc(NC(=O)Cn2c(C)c3cnn(-c4ccccc4)c(=O)c3c2C)c(C)c1 | inactive: -3.76% |
| Cc1cc(Cl)ccc1NC(=O)CCS(=O)(=O)c1cc2c(cc1C)NC(=O)CO2 | inactive: -1.16% |
| Clc1cccc(-n2ncc3c(NCCCc4ccccc4)ncnc32)c1 | inactive: -7.26% |
| COc1cc(C(C)=O)ccc1OCCCN1CCC(c2noc3cc(F)ccc23)CC1 | inactive: -9.26% |
| Cc1cc(C)cc(NC(=O)C(Cc2ccccc2)N2Cc3ccccc3C2=O)c1 (stereo unspecified) | inactive: -20% |
| O=C(NCCSc1c(-c2ccc(Br)cc2)[nH]c2ccccc12)c1ccc(S(=O)(=O)N2CCOCC2)cc1 | inactive: -9.88% |
| Cc1ccc(CNC(=O)C(CC(C)C)N2Cc3ccccc3C2=O)cc1 (stereo unspecified) | inactive: -12.6% |
| Cc1ccc(Cl)cc1NC(=O)Cn1c(=O)c(CNc2ccccc2)cc2cc3c(cc21)OCCO3 | inactive: 10.5% |
| CCOC(=O)C1=C(CN2CCN(c3ccccc3)CC2)NC(=O)NC1c1ccc(C)cc1 (stereo unspecified) | inactive: -23.5% |
| COc1ccc(C2c3c(-c4ccccc4O)n[nH]c3C(=O)N2Cc2ccco2)cc1 (stereo unspecified) | inactive: -6.1% |
| Cc1sc2ncn(CC(=O)Nc3cccc(C(F)(F)F)c3)c(=O)c2c1S(=O)(=O)N1CCC(C)CC1 | inactive: -26.4% |
| COc1cccc(C(=O)NC(=O)Nc2ccc(-c3cc(C(F)(F)F)nn3-c3ccccc3)cc2)c1 | inactive: 1.48% |
| O=C(Nc1ccccc1C(=O)OCc1cc(=O)n2nc(C3CC3)sc2n1)c1cccc(Cl)c1 | inactive: -5.46% |
| Cc1cccc(Cn2c(CN3CCC(C(=O)NCCc4ccccc4)CC3)cc3ccccc32)c1 | inactive: -18.7% |
| COc1ccc(C(=O)Nc2cc(C(F)(F)F)ccc2N2CCN(c3ccccc3)CC2)cc1OC | inactive: -9.22% |
| COc1ccc(-c2c(C)nn3c4c(cnc23)C(=O)CC(c2ccc(C)cc2)C4)cc1 (stereo unspecified) | inactive: -13.1% |
| CCN(c1cccc(C)c1)S(=O)(=O)c1nnc(NC(=O)c2cccs2)s1 | inactive: 0.159% |
| Cc1c(C(=O)Nc2ccccc2Br)oc2ccc(S(=O)(=O)N3CCCCC3)cc12 | inactive: -18.6% |
| CCCCn1c(-c2ccc(S(=O)(=O)N3CCOCC3)cc2)csc1=Nc1ccccc1 | inactive: -38.8% |
| COc1cccc(NC(=O)Cn2c(=O)n(-c3ccc(CC(=O)NCC4CCCO4)cc3)c(=O)c3ccccc32)c1 (stereo unspecified) | inactive: -14.9% |
| CCOc1ccccc1NC(=O)c1cccc2c1C(=O)N(C1CCCCC1)C2 | inactive: -14.9% |
| CCC(=O)Nc1nnc(S(=O)(=O)N(C)Cc2ccccc2)s1 | inactive: -5.86% |
| Cc1cc(C)cc(NC(=O)NCCn2nnc3cc(S(=O)(=O)N(C)C)ccc32)c1 | inactive: -3.06% |

| SMILES | activation |
| --- | --- |
| CSc1ncc(Cl)c(C(=O)N(Cc2ccccc2Cl)C2CCS(=O)(=O)C2)n1 (stereo unspecified) | inactive: -16.3% |
| CCOc1ccc(C(=O)OCc2cc(=O)n3nc(C4CCCCC4)sc3n2)cc1 | inactive: -6.97% |
| CCOc1ccc(NC(=O)Cc2csc(COc3cccc(C)c3)n2)cc1 | inactive: -13.6% |
| CCOc1ccccc1C1C(C(=O)Nc2ccccc2OC)=C(C)Nc2nc3ccccc3n21 (stereo unspecified) | inactive: -2.2% |
| Cc1ccc2nc(NC(=O)c3cc(=O)c4cc(C)c(C)cc4o3)sc2c1 | inactive: -21.9% |
| CCCN1C(=O)C(NC(=O)c2ccccc2OC)(C(F)(F)F)C(C(=O)OC)=C1C (stereo unspecified) | inactive: -16.4% |
| Cc1ccc(C)c(NC(=O)CSc2cn(CC(=O)N3CCCC3)c3ccccc23)c1 | inactive: -1.14% |
| Cc1cc(C)c(NC(=O)CN(CC(=O)O)CC(=O)O)c(C)c1Br | inactive: -9.96% |
| CCc1nnc2c3ccccc3nc(N3CCN(c4ccc(C)cc4C)CC3)n12 | inactive: -10.2% |
| CCOc1ccc(NC(=O)Cn2c(C)ccc(C#N)c2=O)cc1 | inactive: -1.02% |
| O=C(NCCc1csc(-c2cccnc2)n1)c1cccc(C(F)(F)F)c1 | inactive: -38.3% |
| COc1ccccc1CNC(=O)c1ccc(C)c(-n2cnc3cccnc32)c1 | inactive: 7.55% |
| CSc1ccc(CNC(=O)CCn2ccc3cc(S(=O)(=O)N4CCCC4)ccc32)cc1 | inactive: -14.6% |
| COc1ccccc1NC(=O)CSc1nc2c(oc3ccccc32)c(=O)n1-c1ccc(C)cc1 | inactive: 3.41% |
| CCOC(=O)N1CCc2c(sc3c2c(=O)n(-c2ccc(Cl)cc2)c(=O)n3CC(=O)c2ccc(F)cc2)C1 | inactive: -13.9% |
| COc1ccc(NS(=O)(=O)c2nnc(NC(=O)c3ccccc3F)s2)cc1 | inactive: -9.59% |
| O=C(CCCn1c(=O)c2cccn2c2cccnc21)NCCc1ccc(Cl)cc1 | inactive: -8.13% |
| Cc1cc(Br)ccc1NC(=O)c1cc2c(s1)-c1ccccc1SC2 | inactive: 3.58% |
| COc1ccc(-c2nn(C)c3sc(C(=O)N4CCN(c5cccc(C)c5C)CC4)cc23)cc1OC | inactive: -10.9% |
| COc1ccc(CN2C(=O)C(NC(=O)c3ccc(C)cc3)(C(F)(F)F)N=C2c2ccccc2)cc1 (stereo unspecified) | inactive: -13.8% |
| CCOC(=O)c1ccccc1NC(=O)CN(c1ccccc1OC)S(=O)(=O)c1ccc(C)cc1 | inactive: -11.9% |
| Cc1ccc(CNc2nc3c(S(=O)(=O)c4ccccc4)nnn3c3ccsc23)cc1 | inactive: -2.3% |
| COc1cc(/C=C/c2nc(C#N)c(NC3CCCCC3)o2)cc(OC)c1OC | inactive: -13.4% |
| COc1ccc(-n2ccnc(NCCc3ccc(S(N)(=O)=O)cc3)c2=O)cc1 | inactive: 1.81% |
